# Source: PubChem BioAssay AID1030 (National Center for Advancing Translational Sciences (NCATS), 2008)
# Values joined by “and” are separate entries in the source; they are usually repeats but may differ in a detail not shown here. Identical values can stand only once. About 16,000 (7.3%) of roughly 220,000 compounds were called active. The inconclusive results got no clear call from the source; some entries with a clear call stand among them for comparison. Calls come from the whole dose curve; as a rule, active = well fitted inhibition curve with a large enough effect (not every such curve was filed as active); inconclusive = small, poorly fitted or top-dose-only effect, or another doubt; inactive = no such curve, though single readings can be large or run the other way. A potency beside an inconclusive call is a rough fit, not a confirmed value.
# Biological target: Aldehyde dehydrogenase 1A1 (Homo sapiens) (UniProt P00352)
# Assay: qHTS Assay for Inhibitors of Aldehyde Dehydrogenase 1 (ALDH1A1);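 for activity, negative = inhibition: plate controls were no enzyme wells and a reference inhibitor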
# Settings: Purified ALDH1A1, NADH fluorescence, propionaldehyde substrate; series mostly up to 75.3 µM; activity, negative = inhibition: at the top concentration
# Potency is the fitted concentration of half-maximal effect; tags give direction and shape of the fitted curve.
# UniProt P00352, sequence (P00352 whole entry, looked up): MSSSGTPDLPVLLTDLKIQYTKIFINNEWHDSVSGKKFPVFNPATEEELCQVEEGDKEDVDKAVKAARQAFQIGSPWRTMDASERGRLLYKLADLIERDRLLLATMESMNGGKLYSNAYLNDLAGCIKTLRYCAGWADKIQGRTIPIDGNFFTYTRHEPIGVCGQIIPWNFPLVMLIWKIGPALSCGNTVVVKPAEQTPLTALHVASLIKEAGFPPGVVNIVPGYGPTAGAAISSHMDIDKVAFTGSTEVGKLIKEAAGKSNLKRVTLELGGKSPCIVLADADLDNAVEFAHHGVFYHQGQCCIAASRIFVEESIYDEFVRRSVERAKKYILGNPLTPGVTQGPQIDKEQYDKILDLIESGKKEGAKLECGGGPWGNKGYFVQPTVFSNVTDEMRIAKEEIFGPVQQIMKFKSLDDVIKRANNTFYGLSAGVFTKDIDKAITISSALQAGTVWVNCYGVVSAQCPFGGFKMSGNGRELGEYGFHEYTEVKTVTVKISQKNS
SMILES,Potency,"activity, negative = inhibition"
O=C(c1ccco1)N1CCN(C(c2ccc(Cl)cc2)c2nnnn2Cc2ccccc2)CC1 (stereo unspecified),"inconclusive: 25.1 µM [inhibitor, single point]",
Cc1cccn2c(=O)c3cc(C(=O)NCCN4CCOCC4)n(Cc4ccccc4)c3nc12,"inconclusive: 31.6 µM [inhibitor, partial curve]",
NS(=O)(=O)c1ccc(CCNCC(=O)N2CCC(Cc3ccccc3)CC2)cc1,active: 10 µM,
CC(=O)Oc1c(C(=O)c2nnc(C)o2)c(=O)n(C)c2ccccc12,"inconclusive: 39.8 µM [inhibitor, single point]",
CCCN1C(=O)SC(CC(=O)Nc2ccccc2C)C1=O (stereo unspecified),active: 10 µM,
CCCNC(=O)c1c(C)cc(=O)oc1C,,inactive: -0.867%
CC(=O)c1ccc(OC(=O)c2cccs2)cc1,,inactive: 7.75%
CCN1c2ccccc2-c2nc3ccccc3n2C1c1ccncc1 (stereo unspecified),"inconclusive: 37.7 µM [inhibitor, single point]",
CCn1c(=NC(=O)c2ccco2)sc2cccc(F)c21,"inconclusive: 44.7 µM [inhibitor, single point]",
CCCc1cc(N2CCCC2)n2nc(C)c(-c3ccccc3)c2n1,"inconclusive: 39.8 µM [inhibitor, single point]",
COc1ccc(Cc2nc(-c3ccc(-n4cccc4)cc3)no2)cc1OC,"inconclusive: 17.8 µM [inhibitor, partial curve]",
CCn1c(SCC(N)=O)nc2sc3c(c2c1=O)CCCC3,"inconclusive: 18.9 µM [inhibitor, single point]",
CCOc1nc(NCCO)nc(NCCC2=CCCCC2)n1,"inconclusive: 35.5 µM [inhibitor, single point]",
Cc1ccc(Cn2cccc(NC(=O)NC3CCCCC3)c2=O)cc1,"inconclusive: 35.5 µM [inhibitor, single point]",
Cc1ccc(OCC(=O)OCCN2C(=O)c3ccccc3C2=O)cc1C,,inactive: 0.252%
O=[N+]([O-])c1ccc(N/N=C/c2cn(Cc3ccc(F)cc3)c3ccccc23)nc1,active: 17.8 µM,
COc1ccc2[nH]c(-c3cccc(F)c3)cc(=O)c2c1,"inconclusive: 39.8 µM [inhibitor, single point] and inconclusive: 35.5 µM [inhibitor, partial curve]",
Cc1ccc2oc(-c3cccc(NC(=O)/C=C/c4cccc([N+](=O)[O-])c4)c3C)nc2c1,"inconclusive: 35.5 µM [inhibitor, single point]",
N#CCCn1ncn(-c2ccccc2)c1=S,,inactive: 4.13%
CN1CCN(c2ccc([N+](=O)[O-])cc2C(=O)c2ccc(Br)cc2)CC1,active: 28.2 µM,
CC1CC(C)(C)Nc2ccc(OC(=O)c3ccco3)cc21 (stereo unspecified),"inconclusive: 20 µM [inhibitor, partial curve]",
Cc1cccc(NC(=O)CCN2C(=O)C3C4C=CC(C4)C3C2=O)n1 (stereo unspecified),"inconclusive: 15.8 µM [inhibitor, partial curve]",
COC(=O)C1=CN(C(C)C)C=C(C(=O)OC)C1c1cc2c(cc1Br)OCO2,"inconclusive: 22.4 µM [inhibitor, single point]",
CCCNC(=O)Cn1c2ccccc2c2nc(=O)cc(C)n21,"inconclusive: 28.2 µM [inhibitor, partial curve]",
CCc1cc(=O)oc2cc(OCc3nn[nH]n3)ccc12,"inconclusive: 7.94 µM [inhibitor, full curve]",
O=C(O)CC(C(=O)O)N1C(=O)/C(=C/c2ccc(-c3nc4ccccc4s3)o2)SC1=S (stereo unspecified),active: 10 µM,

SMILES,Potency,"activity, negative = inhibition"
C=C(C)C1CC=C(C)/C(=N/NC(=O)c2ccoc2C)C1 (stereo unspecified),,inactive: -4.13%
O=C(O)Cn1ncc2c1-c1ccoc1CC2,,inactive: -7.04%
CC1=[N+](C)c2ccc3ccccc3c2C1(C)C,,inactive: -7.84%
C/C(=N\NC(=O)Cc1cccc2ccccc12)c1ccncc1,"inconclusive: 39.8 µM [inhibitor, single point]",
COc1ccc(CCNC(=O)CCN2C(=O)C3CC=CCC3C2=O)cc1OC (stereo unspecified),,inactive: -11.2%
COc1ccccc1NC(=O)CN1CCN(CC(=O)Nc2ccc3c(c2)OCCO3)CC1,active: 3.55 µM,
CCOc1cc(C=O)cc(Br)c1OCC(=O)NCCc1ccccc1,active: 6.31 µM,
Cc1cc2[nH]c(=S)[nH]c2cc1C,active: 28.2 µM,
O=C(NC1=NCCS1)c1ccc2c(c1)C(=O)N(Cc1ccco1)C2=O,active: 15.8 µM,
O=C(NC(=O)c1ccccc1F)Nc1nc(-c2cccs2)cc(C(F)(F)F)n1,"inconclusive: 31.6 µM [inhibitor, partial curve]",
CCCn1nnc(NC(=O)c2ccc(F)cc2)n1,,inactive: 3.46%
O=C(NCc1cccnc1)c1cc2nc(-c3cccs3)cc(C(F)(F)Cl)n2n1,"inconclusive: 39.8 µM [inhibitor, single point]",
O=[N+]([O-])c1ccc(C=Nc2ccc(Cl)c([N+](=O)[O-])c2)s1,active: 14.1 µM,
CN(CCCNC(=O)c1cccc(N2CCCC2=O)c1)c1ccccc1,"inconclusive: 39.8 µM [inhibitor, single point]",
CC(=O)Nc1ccc(C(=O)CSc2nnnn2C2CCCC2)cc1,active: 15.8 µM,
COc1ccc(N2CCN(C(=O)c3cccc(Br)c3)CC2)c([N+](=O)[O-])c1,"inconclusive: 25.1 µM [inhibitor, single point]",
O=[N+]([O-])c1cc(/C=N/Nc2nc3ccccc3[nH]2)c(O)cc1O,"inconclusive: 20 µM [inhibitor, partial curve]",
COc1ccc(NC(=O)/C=C/c2cc(Br)ccc2OC)cc1,,inactive: -2.99%
CC[N+](C)(CC)CC(=O)Nc1c(C)cccc1C,,inactive: -3.9%
CCN(CC)Cc1cc(O)c(CN(CC)CC)cc1O,"inconclusive: 39.8 µM [inhibitor, single point]",
CC1CCCC(NC(=O)CSC2CCCCC2)C1C (stereo unspecified),"inconclusive: 3.16 µM [inhibitor, full curve, poor fit]",
Cc1ccccc1C1=N/C(=C/c2cccnc2)C(=O)O1,,inactive: -2.62%
O=[N+]([O-])c1ccc(Nc2nc(Cl)nc(NCCO)n2)cc1,,inactive: 2.7%
CCCNC(=O)c1cccc(Br)c1,,inactive: -9.71%
Cc1ccc2c(c1)c1c(n2CC(O)Cn2c(C)nc3ccccc32)C(=O)CCC1 (stereo unspecified),"inconclusive: 28.2 µM [inhibitor, partial curve]",
COc1ccccc1NC(=O)/C=C/C(N)=O,active: 28.2 µM,

SMILES,Potency,"activity, negative = inhibition"
CCCCNC(=O)C(CC)Sc1nc2sc(C(=O)OC)c(C)c2c(=O)n1N (stereo unspecified),"inconclusive: 39.8 µM [inhibitor, single point]",
CCCC(=O)NC(c1ccccc1Cl)c1c(O)ccc2ccccc12 (stereo unspecified),"inconclusive: 39.8 µM [inhibitor, single point]",
CC1CCCC(NC(=O)CN2CCN(Cc3ccc(Cl)cc3)C2=O)C1C (stereo unspecified),"inconclusive: 17.8 µM [inhibitor, partial curve]",
O=C(O)CSc1nc(-c2ccccc2)nc2c1oc1ccccc12,"inconclusive: 39.8 µM [inhibitor, single point]",
COc1cccc(CNC(=O)C(c2ccc(Cl)cc2)C(C)C)c1 (stereo unspecified),"inconclusive: 39.8 µM [inhibitor, single point]",
Clc1ccccc1-c1nn2c(COc3ccccc3)nnc2s1,active: 20 µM,
COc1c(C(=O)NNC(=O)c2ccccc2)csc1Br,,inactive: 4.34%
O=c1cc(/C=C/c2c(F)cccc2Cl)[nH]c2ccccc12,,inactive: 15.7%
CCn1c(SCC(=O)NCCc2ccccc2)nnc1-c1ccco1,"inconclusive: 35.5 µM [inhibitor, single point]",
O=c1cc(CSc2nnnn2-c2ccccc2)nc(Nc2ccc(F)cc2)[nH]1,active: 7.94 µM,
CC(=O)c1ccc(N2CCC(c3cc(-c4ccc(Cl)cc4Cl)n[nH]3)CC2)c([N+](=O)[O-])c1,,inactive: -6.85%
Cc1c(-c2ccccc2)[n+](=O)c(-c2ccco2)c(C)n1[O-],"inconclusive: 39.8 µM [inhibitor, single point]",
COc1ccc(C2C(C(=O)N3CCN(c4ccccc4)CC3)c3ccccc3C(=O)N2C)cc1OC (stereo unspecified),"inconclusive: 25.1 µM [inhibitor, single point]",
COc1cccc(NC(=S)NCc2cccs2)c1,,inactive: -9.38%
COc1ccc(OC)c(/C=N/NC(=O)CCCC(=O)Nc2cccc(Br)c2)c1,"inconclusive: 35.5 µM [inhibitor, partial curve]",
CCCCCCNC(=O)c1cc(-c2ccco2)nc2ccccc12,"inconclusive: 28.2 µM [inhibitor, partial curve]",
COc1ccc(C(NC(=O)c2ccc(=O)[nH]c2)C(=O)Nc2ccc(C(C)C)cc2)cc1 (stereo unspecified),"inconclusive: 39.8 µM [inhibitor, single point]",
COCCn1nnnc1CN1CCC(Cc2ccccc2)CC1,,inactive: -12.6%
COc1ccc(-c2cc(C(F)(F)F)n3nc(C(=O)NCc4ccco4)cc3n2)cc1,"inconclusive: 31.6 µM [inhibitor, partial curve]",
COCC(=O)Nc1ccc(N(C)C)cc1,,inactive: 6.63%
COc1cc(OC)c2c(c1)OC(c1ccc(OC)c(OC)c1)C(O)C2=O (stereo unspecified),"inconclusive: 25.1 µM [inhibitor, single point]",
NS(=O)(=O)c1ccc(CCNC(=O)C2CCCCN2S(=O)(=O)c2ccccc2)cc1 (stereo unspecified),"inconclusive: 39.8 µM [inhibitor, single point]",
CCOC(=O)N1CCN(C(=O)CSCc2nc(-c3ccccc3F)oc2C)CC1,active: 22.4 µM,
c1ccc2c(NCC3CCCO3)nc(N3CCOCC3)nc2c1 (stereo unspecified),"inconclusive: 25.1 µM [inhibitor, partial curve]",
